Consider 63 sequences from article PMC12820563.

The list shows a part of the results. The list includes weakly bound sequences.

For the experiment, the target named is T1, MBP-FoxP3dN (UniProt Q99JB6).
T1 sequence: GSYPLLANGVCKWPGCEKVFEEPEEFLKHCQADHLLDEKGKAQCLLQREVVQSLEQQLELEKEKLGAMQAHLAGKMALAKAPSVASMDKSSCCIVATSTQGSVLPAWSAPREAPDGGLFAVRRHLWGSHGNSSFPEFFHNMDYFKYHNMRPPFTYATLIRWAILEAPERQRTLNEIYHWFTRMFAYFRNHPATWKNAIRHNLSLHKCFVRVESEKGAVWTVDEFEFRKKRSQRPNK
Nature of the experiment: PD-seq (MBP pull-down with sequencing). To be noted: 20 mM Tris-HCl pH 7.5, 100 mM NaCl, 1.5 mM MgCl2, 0.4 uM protein, 0.1 uM dsDNA library, 30 min, room temperature, amylose pull-down; high values mean tight binding; double strand, one strand shown.
With “GATGATTGTTCTCCCAGCTGATGAATTCGGATCTTCGAGTAAACAAATTTTCCTAATCTTTCTGTTCAAGCGCCATCTAC”, the binding signal (RPM ratio (pull-down/input)) came to 0.294. In the case of “GATGATTGTTCTCCCAGCTGATGAATTGATTCCCTCGAGTAAACAAATTTTCCTAATCTTTCTGTTCAAGCGCCATCTAC”, the binding signal (RPM ratio (pull-down/input)) amounted to 0.419. Next, “GATGATTGTTCTCCCAGCTGATGAATTTGGACAGTCGAGTAAACAAATTTTCCTAATCTTTCTGTTCAAGCGCCATCTAC”: 0.347; “GATGATTGTTCTCCCAGCTGATGAATTGCCGGGGTCGAGTAAACAAATTTTCCTAATCTTTCTGTTCAAGCGCCATCTAC”: 0.381; “GATGATTGTTCTCCCAGCTGATGAATTCCAGCAGTCGAGTAAACAAATTTTCCTAATCTTTCTGTTCAAGCGCCATCTAC”: 0.31. Regarding “GATGATTGTTCTCCCAGCTGATGAATTGTTCGACTCGAGTAAACAAATTTTCCTAATCTTTCTGTTCAAGCGCCATCTAC”, the binding signal (RPM ratio (pull-down/input)) was found to be 0.414. In the case of “GATGATTGTTCTCCCAGCTGATGAATTCGAAGGTTCGAGTAAACAAATTTTCCTAATCTTTCTGTTCAAGCGCCATCTAC”, the binding signal (RPM ratio (pull-down/input)) was found to be 0.327. Next, “GATGATTGTTCTCCCAGCTGATGAATTGCTTGGCTCGAGTAAACAAATTTTCCTAATCTTTCTGTTCAAGCGCCATCTAC”: 0.655; “GATGATTGTTCTCCCAGCTGATGAATTTTCAACTTCGAGTAAACAAATTTTCCTAATCTTTCTGTTCAAGCGCCATCTAC”: 0.307; “GATGATTGTTCTCCCAGCTGATGAATTTCACTTTTCGAGTAAACAAATTTTCCTAATCTTTCTGTTCAAGCGCCATCTAC”: 0.374. On to “GATGATTGTTCTCCCAGCTGATGAATTACGATTATCGAGTAAACAAATTTTCCTAATCTTTCTGTTCAAGCGCCATCTAC”, for which the binding signal (RPM ratio (pull-down/input)) was determined as 1.47. Next, “GATGATTGTTCTCCCAGCTGATGAATTTGATGTTTCGAGTAAACAAATTTTCCTAATCTTTCTGTTCAAGCGCCATCTAC”: 5.38.

On to “GATGATTGTTCTCCCAGCTGATGAATTTGACGTGTCGAGTAAACAAATTTTCCTAATCTTTCTGTTCAAGCGCCATCTAC”, for which the binding signal (RPM ratio (pull-down/input)) is 1.63. Next, “GATGATTGTTCTCCCAGCTGATGAATTCAGCTAGTCGAGTAAACAAATTTTCCTAATCTTTCTGTTCAAGCGCCATCTAC”: 1; “GATGATTGTTCTCCCAGCTGATGAATTGCCCGCATCGAGTAAACAAATTTTCCTAATCTTTCTGTTCAAGCGCCATCTAC”: 1.19. The figure for “GATGATTGTTCTCCCAGCTGATGAATTGATGCCGTCGAGTAAACAAATTTTCCTAATCTTTCTGTTCAAGCGCCATCTAC” is 2.25; for “GATGATTGTTCTCCCAGCTGATGAATTTGAACCATCGAGTAAACAAATTTTCCTAATCTTTCTGTTCAAGCGCCATCTAC” it is 0.355. The figure for “GATGATTGTTCTCCCAGCTGATGAATTGTTACCTTCGAGTAAACAAATTTTCCTAATCTTTCTGTTCAAGCGCCATCTAC” is 0.786; for “GATGATTGTTCTCCCAGCTGATGAATTATAAATCTCGAGTAAACAAATTTTCCTAATCTTTCTGTTCAAGCGCCATCTAC” it is 0.432. For “GATGATTGTTCTCCCAGCTGATGAATTCTTCCGGTCGAGTAAACAAATTTTCCTAATCTTTCTGTTCAAGCGCCATCTAC”, the binding signal (RPM ratio (pull-down/input)) is 0.162. The figure for “GATGATTGTTCTCCCAGCTGATGAATTACATTGGTCGAGTAAACAAATTTTCCTAATCTTTCTGTTCAAGCGCCATCTAC” is 0.839; for “GATGATTGTTCTCCCAGCTGATGAATTCTACCGGTCGAGTAAACAAATTTTCCTAATCTTTCTGTTCAAGCGCCATCTAC” it is 0.227; for “GATGATTGTTCTCCCAGCTGATGAATTAGTCCGGTCGAGTAAACAAATTTTCCTAATCTTTCTGTTCAAGCGCCATCTAC” it is 0.251.

Regarding “GATGATTGTTCTCCCAGCTGATGAATTCAGTTAATCGAGTAAACAAATTTTCCTAATCTTTCTGTTCAAGCGCCATCTAC”, the binding signal (RPM ratio (pull-down/input)) came to 0.432. Take “GATGATTGTTCTCCCAGCTGATGAATTCAATTAATCGAGTAAACAAATTTTCCTAATCTTTCTGTTCAAGCGCCATCTAC”: the binding signal (RPM ratio (pull-down/input)) is 0.37.

“GATGATTGTTCTCCCAGCTGATGAATTTTCTTTGTCGAGTAAACAAATTTTCCTAATCTTTCTGTTCAAGCGCCATCTAC”: the binding signal (RPM ratio (pull-down/input)) was 1.15. As to “GATGATTGTTCTCCCAGCTGATGAATTCTAACAGTCGAGTAAACAAATTTTCCTAATCTTTCTGTTCAAGCGCCATCTAC”, the binding signal (RPM ratio (pull-down/input)) came to 0.317. For “GATGATTGTTCTCCCAGCTGATGAATTCATAACATCGAGTAAACAAATTTTCCTAATCTTTCTGTTCAAGCGCCATCTAC”, the binding signal (RPM ratio (pull-down/input)) came out at 1.5.

Regarding “GATGATTGTTCTCCCAGCTGATGAATTGCACGGTTCGAGTAAACAAATTTTCCTAATCTTTCTGTTCAAGCGCCATCTAC”, the binding signal (RPM ratio (pull-down/input)) is 0.772. Next, “GATGATTGTTCTCCCAGCTGATGAATTTATTCATTCGAGTAAACAAATTTTCCTAATCTTTCTGTTCAAGCGCCATCTAC”: 0.689. With “GATGATTGTTCTCCCAGCTGATGAATTATGTACATCGAGTAAACAAATTTTCCTAATCTTTCTGTTCAAGCGCCATCTAC”, the binding signal (RPM ratio (pull-down/input)) turned out to be 1.67. As to “GATGATTGTTCTCCCAGCTGATGAATTAACCCATTCGAGTAAACAAATTTTCCTAATCTTTCTGTTCAAGCGCCATCTAC”, the binding signal (RPM ratio (pull-down/input)) turned out to be 0.277. With “GATGATTGTTCTCCCAGCTGATGAATTTCCTCGGTCGAGTAAACAAATTTTCCTAATCTTTCTGTTCAAGCGCCATCTAC”, the binding signal (RPM ratio (pull-down/input)) is 0.156. The figure for “GATGATTGTTCTCCCAGCTGATGAATTAATCCGCTCGAGTAAACAAATTTTCCTAATCTTTCTGTTCAAGCGCCATCTAC” is 0.237. The figure for “GATGATTGTTCTCCCAGCTGATGAATTTCTGAAATCGAGTAAACAAATTTTCCTAATCTTTCTGTTCAAGCGCCATCTAC” is 0.238. On to “GATGATTGTTCTCCCAGCTGATGAATTCGCGTGCTCGAGTAAACAAATTTTCCTAATCTTTCTGTTCAAGCGCCATCTAC”, for which the binding signal (RPM ratio (pull-down/input)) came out at 1.27. The figure for “GATGATTGTTCTCCCAGCTGATGAATTGGGCACCTCGAGTAAACAAATTTTCCTAATCTTTCTGTTCAAGCGCCATCTAC” is 0.839; for “GATGATTGTTCTCCCAGCTGATGAATTATAGATGTCGAGTAAACAAATTTTCCTAATCTTTCTGTTCAAGCGCCATCTAC” it is 0.554.

For the sequence “GATGATTGTTCTCCCAGCTGATGAATTGACAAGATCGAGTAAACAAATTTTCCTAATCTTTCTGTTCAAGCGCCATCTAC”, the binding signal (RPM ratio (pull-down/input)) was 0.29. Next, “GATGATTGTTCTCCCAGCTGATGAATTAACCGGCTCGAGTAAACAAATTTTCCTAATCTTTCTGTTCAAGCGCCATCTAC”: 0.172; “GATGATTGTTCTCCCAGCTGATGAATTGCTAAGATCGAGTAAACAAATTTTCCTAATCTTTCTGTTCAAGCGCCATCTAC”: 0.398. The figure for “GATGATTGTTCTCCCAGCTGATGAATTTTTGGTATCGAGTAAACAAATTTTCCTAATCTTTCTGTTCAAGCGCCATCTAC” is 0.444. The figure for “GATGATTGTTCTCCCAGCTGATGAATTCCCATTGTCGAGTAAACAAATTTTCCTAATCTTTCTGTTCAAGCGCCATCTAC” is 0.454; for “GATGATTGTTCTCCCAGCTGATGAATTCGCTATCTCGAGTAAACAAATTTTCCTAATCTTTCTGTTCAAGCGCCATCTAC” it is 1.05; for “GATGATTGTTCTCCCAGCTGATGAATTCCGTGCGTCGAGTAAACAAATTTTCCTAATCTTTCTGTTCAAGCGCCATCTAC” it is 0.72. Regarding “GATGATTGTTCTCCCAGCTGATGAATTGAGGCGATCGAGTAAACAAATTTTCCTAATCTTTCTGTTCAAGCGCCATCTAC”, the binding signal (RPM ratio (pull-down/input)) turned out to be 1.28. The figure for “GATGATTGTTCTCCCAGCTGATGAATTACTAGACTCGAGTAAACAAATTTTCCTAATCTTTCTGTTCAAGCGCCATCTAC” is 0.23; for “GATGATTGTTCTCCCAGCTGATGAATTCAAGGGGTCGAGTAAACAAATTTTCCTAATCTTTCTGTTCAAGCGCCATCTAC” it is 0.252. Next, “GATGATTGTTCTCCCAGCTGATGAATTCCGTTCGTCGAGTAAACAAATTTTCCTAATCTTTCTGTTCAAGCGCCATCTAC”: 0.528; “GATGATTGTTCTCCCAGCTGATGAATTTGTTATGTCGAGTAAACAAATTTTCCTAATCTTTCTGTTCAAGCGCCATCTAC”: 6.84; “GATGATTGTTCTCCCAGCTGATGAATTGGGACCCTCGAGTAAACAAATTTTCCTAATCTTTCTGTTCAAGCGCCATCTAC”: 0.385. Next, “GATGATTGTTCTCCCAGCTGATGAATTGACAGAGTCGAGTAAACAAATTTTCCTAATCTTTCTGTTCAAGCGCCATCTAC”: 0.266; “GATGATTGTTCTCCCAGCTGATGAATTAGTGCCTTCGAGTAAACAAATTTTCCTAATCTTTCTGTTCAAGCGCCATCTAC”: 2.8. For “GATGATTGTTCTCCCAGCTGATGAATTTACTTATTCGAGTAAACAAATTTTCCTAATCTTTCTGTTCAAGCGCCATCTAC”, the binding signal (RPM ratio (pull-down/input)) amounted to 2.26. “GATGATTGTTCTCCCAGCTGATGAATTTCAACCATCGAGTAAACAAATTTTCCTAATCTTTCTGTTCAAGCGCCATCTAC”: the binding signal (RPM ratio (pull-down/input)) was found to be 0.369. Next, “GATGATTGTTCTCCCAGCTGATGAATTCGTTCCGTCGAGTAAACAAATTTTCCTAATCTTTCTGTTCAAGCGCCATCTAC”: 0.302; “GATGATTGTTCTCCCAGCTGATGAATTTTATATATCGAGTAAACAAATTTTCCTAATCTTTCTGTTCAAGCGCCATCTAC”: 1.65; “GATGATTGTTCTCCCAGCTGATGAATTAGCTATCTCGAGTAAACAAATTTTCCTAATCTTTCTGTTCAAGCGCCATCTAC”: 1.22. Next, “GATGATTGTTCTCCCAGCTGATGAATTTTTGTGGTCGAGTAAACAAATTTTCCTAATCTTTCTGTTCAAGCGCCATCTAC”: 0.472; “GATGATTGTTCTCCCAGCTGATGAATTTAAATTATCGAGTAAACAAATTTTCCTAATCTTTCTGTTCAAGCGCCATCTAC”: 0.63; “GATGATTGTTCTCCCAGCTGATGAATTCGTTTGGTCGAGTAAACAAATTTTCCTAATCTTTCTGTTCAAGCGCCATCTAC”: 3.98. For the sequence “GATGATTGTTCTCCCAGCTGATGAATTACGCTTCTCGAGTAAACAAATTTTCCTAATCTTTCTGTTCAAGCGCCATCTAC”, the binding signal (RPM ratio (pull-down/input)) came to 2.19. With “GATGATTGTTCTCCCAGCTGATGAATTTATGTTGTCGAGTAAACAAATTTTCCTAATCTTTCTGTTCAAGCGCCATCTAC”, the binding signal (RPM ratio (pull-down/input)) came to 4.93.
